According to PubChem BioAssay AID720708 (National Center for Advancing Translational Sciences (NCATS), 2013):
In all, about 360,000 compounds went through this assay and about 660 (0.18%) were called active. The inconclusive results got no clear call from the source; some entries with a clear call stand among them for comparison. Calls come from the whole dose curve; as a rule, active = well fitted inhibition curve with a large enough effect; inconclusive = small, poorly fitted or top-dose-only effect; inactive = no such curve, though single readings can be large or run the other way. No potency is given beside an inconclusive call; the fits are too rough.

molecular target: Rap guanine nucleotide exchange factor 4 (Homo sapiens) (UniProt Q8WZA2); experiment: qHTS for Antagonist of cAMP-regulated guanine nucleotide exchange factor 2 (EPAC2): primary screen; details: EPAC2 GEF exchange of Rap1B-BODIPY-GDP, fluorescence; activity, negative = inhibition: at 114 µM (top of the series) unless noted; note: nearly all actives have a fitted effect of over 45% in size
Excerpt: In multi-cellular eukaryotic organisms, the effects of cAMP are transduced by two ubiquitously-expressed intracellular cAMP receptors, the classic protein kinase A/cAMP-dependent protein kinase (PKA/cAPK) and the more recently discovered exchange protein directly activated by cAMP/cAMP-regulated guanine nucleotide exchange factor (EPAC/cAMP-GEF). Both PKA and EPAC are ubiquitously expressed in all tissues, and an increase in intracellular cAMP levels will lead to the activation of both PKA and EPAC. Therefore, careful dissections of the individual role and relative contribution of EPAC and PKA within the overall cAMP signaling in various model systems are critical for further elucidating the mechanism of cAMP signaling. To date no EPAC-specific antagonists and agonist, as well as isoform-specific agonists have been reported, and developing EPAC-specific pharmacological probes to determine the physiological functions that EPAC play in the overall cAMP-mediated signaling remains a major challenge within the research field. Furthermore, identified regulators of EPAC may lead to new mechanism-based therapeutic strategies specifically targeting the EPAC / cAMP-signaling components as EPAC has been implicated to play important roles in major human pathological conditions such as diabetes, heart disease, and cancer.
This qHTS will be used to screen the Molecular Libraries Small Molecule Repository (MLSMR) as a concentration-titration series using the NCGC unique quantitative screening (qHTS) platform to find inhibitors for EPAC2. In addition, this assay will also be used as a counterscreen for the EPAC1 qHTS. This fluorescent based assay is developed and validated for EPAC2 that measures exchange using EPAC effector Rap1 complex with BODIPY-GDP, a GDP analog with a tethered fluorophores. Inhibitors are identified by monitoring the change in fluorescence signal as the exchanged free BODIPY-GDP has a reduced fluorescence compared to Rap1-bound BODIPY-GDP. Decrease in signal (inhibition) is the desired outcome for the EPAC2 antagonist while no activity in this assay is desired for the EPAC1 antagonist counterscreen.
NIH Chemical Genomics Center [NCGC]
NIH Molecular Libraries Probe Centers Network [MLPCN]
Assay Submitter (PI): Xiaodong Cheng, The University of Texas, Medical Branch
Briefly, three uL of reagents (100 nM EPAC2, 250 nM RAP1B-BODIPY-GDP, 50 uM GDP) were dispensed into a 1536-well Greiner black solid-bottom medium binding assay plate. Controls and test compounds (23 nL) were transferred to the plate via a Kalypsys pin tool equipped with a 1536-pin array. The plates were centrifuged at 1,000 rpm for 15 seconds followed by 5 minute incubation at room temperature. The assay plates were read at 5 minute intervals for 30 minutes in the ViewLux plate reader using 480nm excitation and 540nm emission filters. The results were normalized to the agonist positive control ATA and DMSO.
% is set by controls: 0 for no effect and ±100 for the full control effect; potency is the fitted concentration of half-maximal effect; tags give direction and shape of the fitted curve.

Sequence of UniProt Q8WZA2 (Q8WZA2 whole entry, looked up): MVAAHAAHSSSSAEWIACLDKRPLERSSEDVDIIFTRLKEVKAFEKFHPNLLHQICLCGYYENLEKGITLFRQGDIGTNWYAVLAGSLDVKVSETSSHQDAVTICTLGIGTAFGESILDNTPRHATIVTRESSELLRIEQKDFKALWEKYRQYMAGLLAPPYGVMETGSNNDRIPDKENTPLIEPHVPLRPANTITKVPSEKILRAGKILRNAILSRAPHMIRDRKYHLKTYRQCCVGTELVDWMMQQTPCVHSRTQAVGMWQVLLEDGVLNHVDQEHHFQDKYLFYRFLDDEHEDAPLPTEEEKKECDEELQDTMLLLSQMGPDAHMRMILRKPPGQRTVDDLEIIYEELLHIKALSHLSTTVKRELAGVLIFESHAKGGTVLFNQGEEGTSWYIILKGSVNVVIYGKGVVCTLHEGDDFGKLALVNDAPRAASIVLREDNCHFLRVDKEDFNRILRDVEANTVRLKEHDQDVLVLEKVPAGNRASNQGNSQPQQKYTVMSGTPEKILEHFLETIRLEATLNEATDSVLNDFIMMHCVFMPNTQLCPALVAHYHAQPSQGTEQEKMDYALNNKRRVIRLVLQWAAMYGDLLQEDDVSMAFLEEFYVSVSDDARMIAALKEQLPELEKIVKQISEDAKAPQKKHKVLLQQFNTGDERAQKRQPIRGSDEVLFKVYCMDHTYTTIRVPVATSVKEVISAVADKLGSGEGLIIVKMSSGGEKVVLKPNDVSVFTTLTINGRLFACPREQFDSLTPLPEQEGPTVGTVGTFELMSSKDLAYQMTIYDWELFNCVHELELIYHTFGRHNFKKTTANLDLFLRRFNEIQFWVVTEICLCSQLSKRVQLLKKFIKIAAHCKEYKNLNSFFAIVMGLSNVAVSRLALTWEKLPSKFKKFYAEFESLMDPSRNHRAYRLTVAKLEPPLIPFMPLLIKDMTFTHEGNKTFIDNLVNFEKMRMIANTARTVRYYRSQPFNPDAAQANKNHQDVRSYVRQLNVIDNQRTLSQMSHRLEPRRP

**Q.** Which Potency does the source give for `COc1ccc(C(C)(O)c2nc(-c3ccccc3C)cs2)cc1` (stereo not drawn) here?
**A.** inconclusive [inhibitor, partial curve]

**Q.** Which Potency does the source give for `COCCCNC(=O)[C@@H](Cc1ccccc1)NC(=O)CC[C@H]1O[C@@H](n2ccc(=O)[nH]c2=O)[C@H](O)[C@@H]1O` here?
**A.** inconclusive [inhibitor, single point]

**Q.** Which “activity, negative = inhibition” value does the source give for `CCNC(=O)COc1ccc(Br)cc1Cl` here?
**A.** inactive: 1.19%

**Q.** For `CCOc1ccccc1NC(=O)COC(=O)c1c[nH]c2ccccc12`, which Potency is on record?
**A.** inconclusive [inhibitor, partial curve]

**Q.** Which “activity, negative = inhibition” value does the source give for `c1ccc(NC2=Nc3ccccc3CS2)cc1` here?
**A.** inactive: 3.04%

**Q.** For `NC(=O)c1ccc(NC(=O)CNC(=O)c2sc3ccccc3c2Cl)cc1`, which Potency is on record?
**A.** inconclusive [inhibitor, full curve, poor fit]

**Q.** `O=C(O)CCc1ccc(S(=O)(=O)Nc2ccccc2N2CCCCC2)cc1` was tested. Which Potency did it give?
**A.** inconclusive [inhibitor, partial curve]

**Q.** For `CCOc1ccc(N(CC(=O)Nc2cccc(F)c2)S(=O)(=O)c2c(C)noc2C)cc1`, which Potency is on record?
**A.** inconclusive [inhibitor, single point]

**Q.** How did the Potency turn out when `N#CCSc1nnc(SCC#N)s1` was run?
**A.** inconclusive [inhibitor, full curve]

**Q.** How did the Potency turn out when `COc1ccccc1OCCn1c(=O)oc2ccc(C)cc21` was run?
**A.** inconclusive [inhibitor, full curve, poor fit]

**Q.** `CN(C)/C=C/c1onc(-c2c(Cl)cccc2Cl)c1C#N` was tested. Which Potency did it give?
**A.** inconclusive [inhibitor, full curve]

**Q.** For `CCOC(=O)c1c(NC(NC(=O)C(C)C)C(Cl)(Cl)Cl)sc2c1CCC2` (stereo not drawn), which Potency is on record?
**A.** inconclusive [inhibitor, partial curve]

**Q.** `CC(OC(=O)c1ccc2c(c1)NC(=O)CS2)C(=O)c1ccc(F)cc1` (stereo not drawn) was tested. Which Potency did it give?
**A.** inconclusive [inhibitor, partial curve]

**Q.** How did the Potency turn out when `COc1ccc(/C=C2\SC(=S)N(C(C(=O)O)c3ccccc3)C2=O)c(OC)c1` (stereo not drawn) was run?
**A.** inconclusive [inhibitor, partial curve]

**Q.** How did the “activity, negative = inhibition” value turn out when `COc1ccc(NC(C)=O)cc1S(=O)(=O)Nc1ccc(OCc2ccccc2)cc1` was run?
**A.** inactive: -14.1%

**Q.** How did the Potency turn out when `O=C(Nc1cccc(Cl)c1)C1COc2ccccc2O1` (stereo not drawn) was run?
**A.** inconclusive [inhibitor, partial curve]

**Q.** With `CCC(NC(=O)CCc1c(C)c2cc3c(-c4ccccc4)coc3cc2oc1=O)C(=O)O` (stereo not drawn) as the molecule, how does the Potency read?
**A.** inconclusive [inhibitor, partial curve]

**Q.** Which Potency does the source give for `CCSC1=C(C#N)C(c2cccs2)C(C(=O)OC)=C(C)N1` (stereo not drawn) here?
**A.** inconclusive [inhibitor, partial curve]

**Q.** Which Potency does the source give for `O=C(CCl)N=c1sccn1Cc1ccc(Cl)cc1Cl` here?
**A.** inconclusive [inhibitor, full curve]

**Q.** `Cc1cccc(OCC(=O)NS(=O)(=O)c2ccc(Br)cc2)c1` was tested. Which Potency did it give?
**A.** inconclusive [inhibitor, single point]

**Q.** `CC(C)(C)c1ccc(/C=N/NC(=O)C2CCCC2)cc1` was tested. Which “activity, negative = inhibition” value did it give?
**A.** inactive: -17.7%

**Q.** For `Cc1ccc(S(=O)(=O)N2C[C@H]3N(C(=O)OC(C)C)N(C(=O)OC(C)C)C[C@H](OC(=O)NCC4CCCCC4)[C@@]3(O)C2)cc1`, which “activity, negative = inhibition” value is on record?
**A.** inactive: -10.9%

**Q.** With `CCOC(=O)N1CC(=O)Nc2ccc(Br)cc2C1c1ccccc1` (stereo not drawn) as the molecule, how does the Potency read?
**A.** inconclusive [inhibitor, partial curve]

**Q.** `CCOC(=O)C[C@@H]1OC[C@H](Cc2ccccc2)N1S(=O)(=O)c1ccc(C)cc1` was tested. Which Potency did it give?
**A.** inconclusive [inhibitor, full curve, poor fit]

**Q.** For `COC(=O)c1cc(S(=O)(=O)NCc2cc(OC)c(OC)c(OC)c2)cn1C`, which “activity, negative = inhibition” value is on record?
**A.** inactive: 6.35%

**Q.** With `O=C1NC(=S)S/C1=C\c1cc2ccccc2nc1N1CCCCC1` as the molecule, how does the Potency read?
**A.** inconclusive [inhibitor, full curve]

**Q.** How did the “activity, negative = inhibition” value turn out when `CC(=O)Oc1ccccc1Cn1c(C)c(C(=O)NCc2cccc(Cl)c2)sc1=O` was run?
**A.** inactive: 7.3%

**Q.** How did the “activity, negative = inhibition” value turn out when `COC(=O)[C@@]1(Cc2ccc(F)cc2)[C@H]2C(CC(=O)C(=O)N3CCCC3)C(=O)C[C@H]2CN1C(=O)c1ccccc1` (stereo partly drawn) was run?
**A.** inactive: 4.21%

**Q.** How did the “activity, negative = inhibition” value turn out when `Cc1coc2c(C)c3oc(=O)c(CCC(=O)NCCCN4CCOCC4)c(C)c3cc12` was run?
**A.** inactive: 11.4%

**Q.** For `COC(=O)c1ccc(OC)c(OC2CCCC2)c1`, which Potency is on record?
**A.** inconclusive [inhibitor, single point]

**Q.** `Cc1nn(-c2ccccc2)c2nc(N)c(C#N)c(-c3ccc(O)c(O)c3)c12` was tested. Which Potency did it give?
**A.** inconclusive [inhibitor, partial curve]

**Q.** `COCCNC(=O)c1cccc2c1C(=O)c1ccc(N3CCOCC3)cc1S2(=O)=O` was tested. Which “activity, negative = inhibition” value did it give?
**A.** inactive: 5.43%

**Q.** With `COc1ccccc1NC(=O)c1sc2nc(Cc3ccccc3)cc(C(F)(F)F)c2c1N` as the molecule, how does the Potency read?
**A.** active: 79.4 µM

**Q.** For `O=C(COc1ccc2c(c1)CCC2)NCc1cccc(Cl)c1`, which Potency is on record?
**A.** inconclusive [inhibitor, single point]

**Q.** How did the Potency turn out when `O=C(Nc1ccccc1Cl)C1CCCN(S(=O)(=O)c2ccc(F)cc2)C1` (stereo not drawn) was run?
**A.** inconclusive [inhibitor, partial curve]

**Q.** How did the Potency turn out when `COc1ccc(CN(C(=O)c2cccs2)c2ccccc2)cc1` was run?
**A.** inconclusive [inhibitor, partial curve]

**Q.** How did the Potency turn out when `COc1cc(/C=C/C(=O)O)cc(S(=O)(=O)Nc2cc(Cl)c(Cl)cc2Cl)c1OC` was run?
**A.** inconclusive [inhibitor, partial curve]

**Q.** `CCCCC(CC)C(=O)Nc1ccc(S(=O)(=O)Nc2nccs2)cc1` (stereo not drawn) was tested. Which Potency did it give?
**A.** inconclusive [inhibitor, partial curve]

**Q.** `Cc1cc(C)c(S(=O)(=O)N2CCCc3ccccc32)c(C)c1` was tested. Which Potency did it give?
**A.** inconclusive [inhibitor, full curve]

**Q.** How did the “activity, negative = inhibition” value turn out when `CCOc1ccc(S(=O)(=O)N2CCN(C(=S)NCc3ccco3)CC2)cc1` was run?
**A.** inactive: -4.64%

**Q.** How did the Potency turn out when `COC(=O)C1Sc2[nH]c(=O)sc2C(c2ccc(Cl)cc2)C1C(=O)OC` (stereo not drawn) was run?
**A.** inconclusive [inhibitor, partial curve]

**Q.** With `Cn1cc(CN2CCC(N3CCNC(=O)CC3)CC2)c(-c2ccccc2F)n1` as the molecule, how does the “activity, negative = inhibition” value read?
**A.** inactive: 7.99%

**Q.** `CC(=O)OC[C@@H]1CN(Cc2ccccc2)C[C@H](n2cnc3c(NCc4ccc(F)cc4)ncnc32)O1` was tested. Which Potency did it give?
**A.** inconclusive [inhibitor, full curve]
